The list shows a part of the results. Many values rest on one well or one pass, so single values are uncertain.
Tested on: A375
Experiment: cell count relative to DMSO control; melanoma cells; higher = more viable cells
Conditions: library dose: standard library concentration; 72 h
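Note: cells treated in 1,536-well plates, then fixed and DAPI-stained, with nuclei counted from automated high-throughput microscope images.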

Row | SMILES | cell count [%]
1 | COc1cc([C@@H]2c3cc4c(cc3[C@@H](O[C@@H]3O[C@@H]5CO[C@@H](C)O[C@H]5[C@H](O)[C@H]3O)[C@H]3COC(=O)[C@H]23)OCO4)cc(OC)c1O [etoposide] + CCCS(=O)(=O)Nc1ccc(F)c(C(=O)c2c[nH]c3ncc(Cl)cc23)c1F [PLX4720] (first compound 0.1 µM, partner dose 0.4 µM) | 78
2 | CCN(CC)CCNC(=O)c1c(C)[nH]c(/C=C2\C(=O)Nc3ccc(F)cc32)c1C [sunitinib] + CN(c1ncccc1CNc1nc(Nc2ccc3c(c2)CC(=O)N3)ncc1C(F)(F)F)S(C)(=O)=O [PF562271] (first compound 2 µM, partner dose 0.4 µM) | 82.6
3 | Cn1cnc2c(F)c(Nc3ccc(Br)cc3Cl)c(C(=O)NOCCO)cc21 [selumetinib] + CN1CCN(c2ccc3nc(-c4c(N)c5c(F)cccc5[nH]c4=O)[nH]c3c2)CC1 [Dovitinib] (first compound 0.075 µM, partner dose 0.5 µM) | 44.5
4 | C[C@]1(O)C[C@@H](c2nc(-c3ccc4ccc(-c5ccccc5)nc4c3)c3c(N)nccn32)C1 + CO[C@@H]1[C@H](N(C)C(=O)c2ccccc2)C[C@H]2O[C@]1(C)n1c3ccccc3c3c4c(c5c6ccccc6n2c5c31)C(=O)NC4 [Midostaurin] (first compound 2 µM, partner dose 0.4 µM) | 71.3
5 | Cn1cnc2c(F)c(Nc3ccc(Br)cc3Cl)c(C(=O)NOCCO)cc21 [selumetinib] + NC(=O)c1ccc(N(C(N)=O)c2c(F)cccc2F)nc1-c1ccc(F)cc1F [VX702] (first compound 0.075 µM, partner dose 2 µM) | 104
6 | CCN(CC)CCNC(=O)c1c(C)[nH]c(/C=C2\C(=O)Nc3ccc(F)cc32)c1C [sunitinib] + Cn1nnc2c(C(N)=O)ncn2c1=O [temozolomide] (first compound 2 µM, partner dose 10 µM) | 96
7 | CCN(CC)CCNC(=O)c1c(C)[nH]c(/C=C2\C(=O)Nc3ccc(F)cc32)c1C [sunitinib] + COc1cc(Nc2ncc(F)c(Nc3ccc4c(n3)NC(=O)C(C)(C)O4)n2)cc(OC)c1OC [Tamatinib] (first compound 2 µM, partner dose 2 µM) | 105
8 | CCN(CC)CCNC(=O)c1c(C)[nH]c(/C=C2\C(=O)Nc3ccc(F)cc32)c1C [sunitinib] + CC(C)C[C@H](NC(=O)[C@H](Cc1ccccc1)NC(=O)c1cnccn1)B(O)O [Bortezomib] (first compound 2 µM, partner dose 0.005 µM) | 100
9 | CCN(CC)CCNC(=O)c1c(C)[nH]c(/C=C2\C(=O)Nc3ccc(F)cc32)c1C [sunitinib] + C[C@@H]1CCN(C(=O)CC#N)C[C@@H]1N(C)c1ncnc2[nH]ccc12 [CP690550] (first compound 2 µM, partner dose 5 µM) | 109
10 | Cn1cnc2c(F)c(Nc3ccc(Br)cc3Cl)c(C(=O)NOCCO)cc21 [selumetinib] + C[C@]1(O)C[C@@H](c2nc(-c3ccc4ccc(-c5ccccc5)nc4c3)c3c(N)nccn32)C1 [OSI906] (first compound 0.075 µM, partner dose 2 µM) | 84.8
11 | Cn1cnc2c(F)c(Nc3ccc(Br)cc3Cl)c(C(=O)NOCCO)cc21 [selumetinib] + C[C@@H](Oc1cc(-c2cnn(C3CCNCC3)c2)cnc1N)c1c(Cl)ccc(F)c1Cl [Crizotinib] (first compound 0.075 µM, partner dose 1 µM) | 78.5
12 | COc1cc([C@@H]2c3cc4c(cc3[C@@H](O[C@@H]3O[C@@H]5CO[C@@H](C)O[C@H]5[C@H](O)[C@H]3O)[C@H]3COC(=O)[C@H]23)OCO4)cc(OC)c1O [etoposide] + O=C(O)c1ccc2c(c1)nc(Nc1cccc(Cl)c1)c1ccncc12 [CX4945] (first compound 0.1 µM, partner dose 2 µM) | 72.3
13 | Cn1cnc2c(F)c(Nc3ccc(Br)cc3Cl)c(C(=O)NOCCO)cc21 [selumetinib] + O=C(O)[C@@H]1[O][Sb](=[O])([O][Sb]2(=[O])[O][C@H]([C@H](O)CO)[C@H](O)[C@H](C(=O)O)[O]2)[O][C@H]([C@H](O)CO)[C@@H]1O [stibogluconate] (first compound 0.075 µM, partner dose 10 µM) | 88.1
